This is one part of the list.

The target of the experiment is T1, MBP-FoxP1dN (Mus musculus, UniProt P58462 326-579).
T1 sequence: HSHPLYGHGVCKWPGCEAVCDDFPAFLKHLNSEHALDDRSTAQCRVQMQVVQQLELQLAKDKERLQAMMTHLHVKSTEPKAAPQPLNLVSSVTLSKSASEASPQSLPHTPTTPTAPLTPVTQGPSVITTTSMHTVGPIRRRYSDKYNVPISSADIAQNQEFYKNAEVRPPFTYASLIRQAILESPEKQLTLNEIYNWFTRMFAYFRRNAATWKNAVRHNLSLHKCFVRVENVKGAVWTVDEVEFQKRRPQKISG
In words: PD-seq (MBP pull-down with sequencing); 20 mM Tris-HCl pH 7.5, 100 mM NaCl, 1.5 mM MgCl2, 0.4 uM protein, 0.1 uM dsDNA library, 30 min, room temperature, amylose pull-down; high values mean tight binding. The following applies: protein: recombinant; tags: His6-MBP; chain copies: 2; dsDNA, one strand shown. The gist of the method:
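His6-MBP-tagged mouse FoxP3 or FoxP1 fragment lacking the N-terminus, expressed in E. coli, was mixed at 0.4 µM with 0.1 µM Klenow-filled double-stranded degenerate DNA library. Incubation was 30 min at room temperature in Tris pH 7.5 buffer with NaCl and MgCl2. Complexes were caught on amylose resin and washed three times; DNA was released with proteinase K, PCR-barcoded and Illumina-sequenced. Binding is reads-per-million enrichment, pull-down over input, with replicates pooled.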
As to “GATGATTGTTCTCCCAGCTGATGAATTCGACGGCTCGAGTAAACAAATTTTCCTAATCTTTCTGTTCAAGCGCCATCTAC”, the binding signal is 0.78 RPM ratio (pull-down/input).

For the sequence “GATGATTGTTCTCCCAGCTGATGAATTGAAGAAGTCGAGTAAACAAATTTTCCTAATCTTTCTGTTCAAGCGCCATCTAC”, the binding signal is 0.849 RPM ratio (pull-down/input).

For “GATGATTGTTCTCCCAGCTGATGAATTGCTCTTCTCGAGTAAACAAATTTTCCTAATCTTTCTGTTCAAGCGCCATCTAC”, the binding signal is 0.889 RPM ratio (pull-down/input).

“GATGATTGTTCTCCCAGCTGATGAATTTCGTGTGTCGAGTAAACAAATTTTCCTAATCTTTCTGTTCAAGCGCCATCTAC”: the binding signal is 0.976 RPM ratio (pull-down/input).

“GATGATTGTTCTCCCAGCTGATGAATTAGCATCATCGAGTAAACAAATTTTCCTAATCTTTCTGTTCAAGCGCCATCTAC”: the binding signal was 1.37 RPM ratio (pull-down/input).

As to “GATGATTGTTCTCCCAGCTGATGAATTGCGCCTCTCGAGTAAACAAATTTTCCTAATCTTTCTGTTCAAGCGCCATCTAC”, the binding signal is 1.13 RPM ratio (pull-down/input).

In the case of “GATGATTGTTCTCCCAGCTGATGAATTTTTCCGGTCGAGTAAACAAATTTTCCTAATCTTTCTGTTCAAGCGCCATCTAC”, the binding signal is 0.832 RPM ratio (pull-down/input).

As for “GATGATTGTTCTCCCAGCTGATGAATTCTAAAGATCGAGTAAACAAATTTTCCTAATCTTTCTGTTCAAGCGCCATCTAC”, the binding signal is 0.85 RPM ratio (pull-down/input).

For “GATGATTGTTCTCCCAGCTGATGAATTACAGAGGTCGAGTAAACAAATTTTCCTAATCTTTCTGTTCAAGCGCCATCTAC”, the binding signal is 0.951 RPM ratio (pull-down/input).

Consider “GATGATTGTTCTCCCAGCTGATGAATTCTGACTGTCGAGTAAACAAATTTTCCTAATCTTTCTGTTCAAGCGCCATCTAC”, for which the binding signal was 0.811 RPM ratio (pull-down/input).

As for “GATGATTGTTCTCCCAGCTGATGAATTTCCTCGTTCGAGTAAACAAATTTTCCTAATCTTTCTGTTCAAGCGCCATCTAC”, the binding signal is 0.899 RPM ratio (pull-down/input).

“GATGATTGTTCTCCCAGCTGATGAATTAACAGCCTCGAGTAAACAAATTTTCCTAATCTTTCTGTTCAAGCGCCATCTAC”: the binding signal is 0.996 RPM ratio (pull-down/input).

With “GATGATTGTTCTCCCAGCTGATGAATTCTTCAGCTCGAGTAAACAAATTTTCCTAATCTTTCTGTTCAAGCGCCATCTAC”, the binding signal is 0.854 RPM ratio (pull-down/input).

Consider “GATGATTGTTCTCCCAGCTGATGAATTATATTTATCGAGTAAACAAATTTTCCTAATCTTTCTGTTCAAGCGCCATCTAC”, for which the binding signal is 2.43 RPM ratio (pull-down/input).

Regarding “GATGATTGTTCTCCCAGCTGATGAATTACCGTCGTCGAGTAAACAAATTTTCCTAATCTTTCTGTTCAAGCGCCATCTAC”, the binding signal is 0.955 RPM ratio (pull-down/input).

On to “GATGATTGTTCTCCCAGCTGATGAATTTCATGTCTCGAGTAAACAAATTTTCCTAATCTTTCTGTTCAAGCGCCATCTAC”, for which the binding signal was 0.774 RPM ratio (pull-down/input).

For “GATGATTGTTCTCCCAGCTGATGAATTGTACAAATCGAGTAAACAAATTTTCCTAATCTTTCTGTTCAAGCGCCATCTAC”, the binding signal is 1.35 RPM ratio (pull-down/input).

On to “GATGATTGTTCTCCCAGCTGATGAATTCCAAGGGTCGAGTAAACAAATTTTCCTAATCTTTCTGTTCAAGCGCCATCTAC”, for which the binding signal was 0.669 RPM ratio (pull-down/input).

As to “GATGATTGTTCTCCCAGCTGATGAATTACCTCTGTCGAGTAAACAAATTTTCCTAATCTTTCTGTTCAAGCGCCATCTAC”, the binding signal was 0.836 RPM ratio (pull-down/input).

Take “GATGATTGTTCTCCCAGCTGATGAATTGTGCACATCGAGTAAACAAATTTTCCTAATCTTTCTGTTCAAGCGCCATCTAC”: the binding signal is 1.23 RPM ratio (pull-down/input).

“GATGATTGTTCTCCCAGCTGATGAATTATCGGTCTCGAGTAAACAAATTTTCCTAATCTTTCTGTTCAAGCGCCATCTAC”: the binding signal was 0.857 RPM ratio (pull-down/input).

Turning to “GATGATTGTTCTCCCAGCTGATGAATTTACGCTGTCGAGTAAACAAATTTTCCTAATCTTTCTGTTCAAGCGCCATCTAC”, the binding signal is 1.29 RPM ratio (pull-down/input).

With “GATGATTGTTCTCCCAGCTGATGAATTCAGCTTTTCGAGTAAACAAATTTTCCTAATCTTTCTGTTCAAGCGCCATCTAC”, the binding signal is 0.882 RPM ratio (pull-down/input).

Regarding “GATGATTGTTCTCCCAGCTGATGAATTCCGGACATCGAGTAAACAAATTTTCCTAATCTTTCTGTTCAAGCGCCATCTAC”, the binding signal is 0.818 RPM ratio (pull-down/input).

With “GATGATTGTTCTCCCAGCTGATGAATTTGTGAGGTCGAGTAAACAAATTTTCCTAATCTTTCTGTTCAAGCGCCATCTAC”, the binding signal is 1.05 RPM ratio (pull-down/input).

Take “GATGATTGTTCTCCCAGCTGATGAATTTCCACATTCGAGTAAACAAATTTTCCTAATCTTTCTGTTCAAGCGCCATCTAC”: the binding signal was 0.883 RPM ratio (pull-down/input).

For “GATGATTGTTCTCCCAGCTGATGAATTACGACGATCGAGTAAACAAATTTTCCTAATCTTTCTGTTCAAGCGCCATCTAC”, the binding signal is 1.01 RPM ratio (pull-down/input).

Consider “GATGATTGTTCTCCCAGCTGATGAATTGTTTTTCTCGAGTAAACAAATTTTCCTAATCTTTCTGTTCAAGCGCCATCTAC”, for which the binding signal was 2.22 RPM ratio (pull-down/input).

For “GATGATTGTTCTCCCAGCTGATGAATTCAAAATATCGAGTAAACAAATTTTCCTAATCTTTCTGTTCAAGCGCCATCTAC”, the binding signal is 1.45 RPM ratio (pull-down/input).

For “GATGATTGTTCTCCCAGCTGATGAATTAAATATATCGAGTAAACAAATTTTCCTAATCTTTCTGTTCAAGCGCCATCTAC”, the binding signal was 1.09 RPM ratio (pull-down/input).

Consider “GATGATTGTTCTCCCAGCTGATGAATTTGACCCGTCGAGTAAACAAATTTTCCTAATCTTTCTGTTCAAGCGCCATCTAC”, for which the binding signal was 0.761 RPM ratio (pull-down/input).
